According to PubChem BioAssay AID493208 (National Center for Advancing Translational Sciences (NCATS), 2011):
Out of some 44,000 compounds screened, about 340 (0.77%) were called active. Roughly 5% stayed inconclusive and do not appear here. The call rests on the fitted dose curve; in most records, active means well fitted inhibition curve with a large enough effect; inconclusive means small, poorly fitted or top-dose-only effect; inactive means flat fitted curve, though single readings scatter. Some of the results follow.

Assay: Acumen qHTS Assay for Inhibitors of the mTORC1 Signaling Pathway in MEF (Tsc2-/-, p53-/-) Cells: Sytravon;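 further: plate controls were DMSO for no effect and rapamycin for full effect; nearly all actives have a fitted effect of over 50% in size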
Settings: phospho-rpS6 immunofluorescence/PI, 24 h; series mostly up to 38.3 µM; activity change, negative = inhibition: at the top concentration
Procedure, shortened: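 Tsc2-/-, p53-/- MEFs (empty-vector stable line) in DMEM + 10% FBS were treated with compounds 24 h at 37 degree Celsius, fixed, and immunostained for phospho-rpS6 (Alexa-488) with propidium iodide counterstain. Laser-scanning cytometry gave % positive cells, normalized against 7.5 nM rapamycin and DMSO.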

Activity change, negative = inhibition, inactive:
CCOCCCNC(=O)C(=O)Nc1c2c(nn1-c1ccccc1)CSC2 0.207%
Cc1ccc(CNS(=O)(=O)c2ccc3[nH]c4c(c3c2)CCCCC4)cc1 7%
COCCCn1c(=O)c2sccc2n2c(CCCC(=O)Nc3cccc(OC)c3)nnc12 -18.3%
Cc1cccc(NC(=O)C2CCCN(S(=O)(=O)c3ccc4c(c3)CCCC(=O)N4)C2)c1 (stereo not given) 7.78%
COc1ccc(Cl)cc1NC(=O)Cn1nc(C(F)(F)F)c2c1CCCC2 0.649%
CCc1ccc(NC(=O)c2ccc(Cn3nc(N4CCN(c5ccccc5)CC4)ccc3=O)o2)cc1 -10.8%
O=C(c1ccc2c(c1)N(Cc1c(F)cccc1Cl)C(=O)c1ccccc1S2)N1CCCC1 2.28%
Cc1ccc(Cl)cc1-n1ncc2c(Nc3ccc4c(c3)OCCO4)ncnc21 6.69%
COc1cc(NC(=O)CN2C(=O)COc3ccc(S(=O)(=O)NC4CCCC4)cc32)cc(OC)c1 -4.86%
CC(=O)N1CCCC1c1nc2ccccc2n1Cc1ccc(F)cc1 (stereo not given) 4.06%
CC1CCc2c(sc3nnn(CC(=O)Nc4c(C(C)C)cccc4C(C)C)c(=O)c23)C1 (stereo not given) 1.99%
CCC(C)c1ccccc1OCC(=O)Nc1ccc(S(=O)(=O)Nc2cc(C)on2)cc1 (stereo not given) -3.93%
COc1cc(NS(=O)(=O)c2c(C(=O)N3CCCCC3)c(C)n(C)c2C)cc(OC)c1OC 5.28%
COc1ccc(-c2cc3ncc(C(=O)c4cc([N+](=O)[O-])ccc4O)cn3n2)cc1 6.01%
O=C(Nc1cccc2cccnc12)c1ccc(-c2cccc(Cl)c2)o1 -0.405%
CCCn1c2ccccc2c2cnn(CC(=O)NCCCN(CC)c3ccccc3)c(=O)c21 -8.71%
O=C(Nc1sc2c(c1C(=O)NCC1CCCO1)CCC2)c1cc(=O)c2cc(Cl)ccc2o1 (stereo not given) -0.173%
COc1cccc(NC(=O)CCCn2c(=O)c3cccn3c3cccnc32)c1 3.26%
Cc1ccc(CCNC(=O)c2ccc3c(c2)N(Cc2ccccc2F)C(=O)c2ccccc2S3=O)cc1 (stereo not given) -1.19%
Cn1nnnc1SCCCNCc1cc(Br)ccc1OCc1ccccc1F -15.3%
CCOC(=O)c1cc(-c2ccccc2)n(CC(=O)Nc2ccccc2OCC)c1C -12.2%
Fc1ccc(-c2cc(-c3ccccc3)c3c(n2)-c2ccccc2OC3)cc1 -4.19%
COc1ccc(-c2nc(CCNC(=O)c3ccccc3)cs2)cc1OC -8.56%
Cc1cccc(C)c1NC(=O)CCCn1c(=O)c2cccn2c2ccccc21 8.81%
O=C1C(=O)N(C2CCNCC2)CCN1Cc1ccccc1 2.18%
CCOC(=O)c1c(S(=O)(=O)NCC(=O)Nc2ccc(C(C)=O)cc2)c(C)n(C)c1C 0.371%
CCOc1ccc(-n2cc(-c3ccccc3)c3c(NC4CCCCC4)ncnc32)cc1 5.05%
Cc1nn(-c2ccccc2)c(OC(=O)c2ccccc2Cl)c1S(=O)(=O)c1ccccc1 1.23%
COc1ccc2c(c1)c1c(c(=O)n(-c3cccc(Cl)c3)c(=O)n1CC(=O)NCC1CCCO1)n2C (stereo not given) -7.51%
Cc1ccc(CNC(=O)CCS(=O)(=O)c2ccc3c(c2)CC(C)N3C(=O)C2CC2)cc1 (stereo not given) 0.907%
CCOc1ccc(NC(=O)CSC2=Nc3ccccc3C3=NC(CCC(=O)NCc4cccs4)C(=O)N23)cc1 (stereo not given) -4.87%
COCCNC(=O)Cn1cnc2sc(C)c(S(=O)(=O)N3CCN(c4ccccc4OC)CC3)c2c1=O 0%
COc1cc(CNCCSc2nnnn2C)ccc1OCc1ccc(F)cc1 -22.2%
CC(CNC(=O)c1nnc(Cc2cccc(F)c2)o1)c1ccccc1 (stereo not given) 3.5%
CCOC(=O)c1[nH]c(C)c(CCC(=O)Nc2cccc(C(F)(F)F)c2)c1C 1.6%
COc1ccc(N2CC(NC(=O)C3CC3)CC2=O)cc1 (stereo not given) 0.671%
CCC(NC(=O)Nc1ccc(OC)c(OC)c1)c1c(-n2cccc2)sc2c1CCN(C)C2 (stereo not given) 1.07%
CC(=O)c1cccc(NC(=O)[C@H](Cc2ccccc2)N2Cc3ccccc3C2=O)c1 -10.5%
COc1ccccc1C(=O)NCCSc1c(C)[nH]c2ccccc12 8.5%
O=c1oc2ccc3ccccc3c2cc1-c1nnc(Nc2ccc(Cl)cc2Cl)s1 -5.22%
COc1cccc(NC(=O)CSc2nc(=O)n(Cc3ccccn3)c3c2CCC3)c1 3.27%
CCc1ccc(NC(=O)Cn2c(=O)c(CNc3ccccc3)cc3cc(OC)c(OC)cc32)cc1 -0.56%
Cc1cccc(NC(=O)C2CCCN(S(=O)(=O)c3c(C)[nH]c(=O)[nH]c3=O)C2)c1C (stereo not given) -1.7%
COc1ccc(-c2nc3ccccc3o2)cc1NC(=O)C(C)(C)Oc1ccc(Br)cc1 -3.42%
COc1cccc(N2CCN(C(=O)CCS(=O)(=O)c3ccc4c(c3)CC(=O)N4C)CC2)c1 0%
O=C(Cn1c(=O)oc2cc(S(=O)(=O)N3CCCC3)ccc21)NCc1ccc(Cl)cc1 -0.993%
CCN(CC)C(=O)Cn1c(=O)n(Cc2ccc(C(=O)NCc3ccc(C)cc3)cc2)c(=O)c2ccccc21 -26.1%
Cc1ncc(CO)c2c1Oc1nc(-c3ccccc3)nc(SCC(=O)N3CCCCC3)c1C2 -1.57%
COc1ccc(NC(=O)Cn2c(=O)n(-c3cccc(C)c3)c(=O)c3c2c2cc(C)ccc2n3C)cc1Cl -3.05%
CCOc1cc2sc(N3CCC(C(=O)Nc4ccccc4C(=O)OC)CC3)nc2cc1Br -4.58%
CCOCCCNC(=O)c1cc2c(=O)n(C)c3ccccc3c2n1C -11.7%
Cc1ccc(NC(=O)c2cn3c4c(ccc(Cl)c4c2=O)OC(C)C3)cc1C (stereo not given) -1.21%
COc1ccc(C(=O)Nc2cc(-c3ccccc3)nn2-c2ccccc2)cc1 5.15%
CCOC(=O)c1sc(NC(=O)C(C)Oc2ccc(OC)cc2)c(C(=O)OCC)c1C (stereo not given) -5.08%
O=C(COCc1cc(-c2cccs2)on1)Nc1cc(Cl)ccc1O 0.238%
Cc1ccc(NC(=O)COc2ccc(-c3nn(C)c(=O)c4ccccc34)cc2)cc1 -16.6%
CCOC(=O)c1cccc(NC(=O)c2cc3cc4cc(OC)ccc4nc3s2)c1 -0.521%
COc1ccc(C)cc1NC(=O)CN1C(=O)COc2ccc(S(=O)(=O)N3CCOCC3)cc21 -3.92%
CCOc1ccccc1NC(=O)Cn1c(=O)oc2cc(S(=O)(=O)NCc3ccccc3)ccc21 0.352%
Cc1ccc(CNC(=O)C2CCN(S(=O)(=O)Cc3ccccc3)CC2)cc1 0.477%
